# From PubChem BioAssay AID1345083 (National Center for Advancing Translational Sciences (NCATS), 2018)
# Out of some 94,000 compounds screened, about 6,200 (6.6%) were called active. Inconclusive means that the source gave no clear call. Such entries were picked first, then a sample of the others. The call rests on the fitted dose curve; in most records, active means well fitted inhibition curve with a large enough effect; inconclusive means small, poorly fitted or top-dose-only effect; inactive means flat fitted curve, though single readings scatter. Potencies beside an inconclusive call are fits to weak or partial responses and may not hold up.
# Assay: Cytotoxic Profiling in HEK 293 Cell Line of Diverse Libraries Using Quantitative High-Throughput Screening; further: nearly all actives have a fitted effect of over 60% in size
# Conditions: HEK 293 viability, ATP luminescence (CellTiter-Glo), 48-72 h; activity change, negative = cytotoxicity: at 115 µM (top of the series) unless noted; series mostly up to 115 µM
# Summary of the method: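 HEK 293 seeded at 250 cells/well receive compound via pintool. After 48 or 72 hr at 37 degree Celsius, 5% CO2 and 95% humidity, CellTiter-Glo is dispensed and luminescence read following 10 min at room temperature.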
# On the % scale 0 is the no-effect control and ±100 the full control effect; potency means the concentration at half of the fitted maximal effect; tags describe the fitted curve by direction and shape.
SMILES,Potency,"activity change, negative = cytotoxicity"
Cn1ccc2c(C(=O)NCc3cccnc3)nc(-c3ccccc3)cc21,"inconclusive: 79.4 µM [inhibitor, partial curve, poor fit]",–
CN(C)CCCNC(=O)c1cc2c(n1C)CCN(Cc1ccc(F)cc1)C2,"inconclusive: 50.1 µM [inhibitor, partial curve, poor fit]",–
COc1ccc(-c2ccc3ncc(Nc4cc(F)cc(N5CCOCC5)c4)n3n2)cc1OC,"inconclusive: 25.1 µM [inhibitor, full curve, poor fit]",–
CN(C)C(=O)c1ccc(N2CCC(NCCC3=CC[C@H]4C[C@@H]3C4(C)C)CC2)cc1,"inconclusive: 44.7 µM [inhibitor, partial curve, poor fit]",–
O=[S+]1([O-])c2cnccc2OC(Cn2cccc2)CN1Cc1cccc(F)c1 (stereo unspecified),"inconclusive: 35.5 µM [inhibitor, partial curve, poor fit]",–
Cc1nc2c(OCC(=O)OC(C)(C)C)cccn2c(=O)c1-c1cc(C)n(-c2ccc(Cl)cc2)n1,"inconclusive: 50.1 µM [inhibitor, partial curve, poor fit]",–
CCOC(=O)C1CCCN(C(=O)C2COC3(CCCCC3)N2C(=O)c2ccccc2Cl)C1 (stereo unspecified),"inconclusive: 89.1 µM [inhibitor, single point]",–
O=C(c1ccccn1)N1CCC(c2cc(-c3ccccc3)n[nH]2)CC1,"inconclusive: 89.1 µM [inhibitor, single point]",–
Cc1ccc2nc(CO[C@H]3CN(Cc4ccc(S(C)(=O)=O)cc4)C[C@H]3F)[nH]c2c1,"inconclusive: 50.1 µM [inhibitor, full curve]",–
C=CCN(C)C(=O)[C@@H](C)C1CC[C@@]2(C)Cc3sc(NC(=O)CN(C)C)nc3[C@@H](C)[C@@H]2[C@H]1O (stereo partly specified),–,inactive: -21.3%
O=C1NCCCCCCN(C(=O)Nc2ccc3c(c2)OCCO3)[C@H]2CCCC[C@@H]12,–,inactive: -0.256%
O=C(Nc1ccc2c(c1)OCCO2)N1CCC(Cc2nc(-c3cccnc3)n[nH]2)C1 (stereo unspecified),–,inactive: -25.3%
O=C(NC1CCCc2c1cnn2-c1ccc(F)cc1F)c1c(F)cccc1Cl (stereo unspecified),active: 35.5 µM,–
O=C(NCc1ccc(F)cc1)c1ccnc(-c2nnc3ccc(Nc4ccccc4)nn23)c1,"inconclusive: 31.6 µM [inhibitor, full curve, poor fit]",–
CN1CCN(C(=O)c2cc3n(n2)CC(c2ccc(Br)cc2)OC3)CC1 (stereo unspecified),active: 39.8 µM,–
COC(=O)c1cccc(NC(=O)C2CCc3sc(C(=O)N4CCOCC4)cc3C2)c1 (stereo unspecified),"inconclusive: 50.1 µM [inhibitor, partial curve, poor fit]",–
